Assay [1] has as its target T1, EIICB^Glc-5His (E. coli K-12) (UniProt P69786).
T1 sequence: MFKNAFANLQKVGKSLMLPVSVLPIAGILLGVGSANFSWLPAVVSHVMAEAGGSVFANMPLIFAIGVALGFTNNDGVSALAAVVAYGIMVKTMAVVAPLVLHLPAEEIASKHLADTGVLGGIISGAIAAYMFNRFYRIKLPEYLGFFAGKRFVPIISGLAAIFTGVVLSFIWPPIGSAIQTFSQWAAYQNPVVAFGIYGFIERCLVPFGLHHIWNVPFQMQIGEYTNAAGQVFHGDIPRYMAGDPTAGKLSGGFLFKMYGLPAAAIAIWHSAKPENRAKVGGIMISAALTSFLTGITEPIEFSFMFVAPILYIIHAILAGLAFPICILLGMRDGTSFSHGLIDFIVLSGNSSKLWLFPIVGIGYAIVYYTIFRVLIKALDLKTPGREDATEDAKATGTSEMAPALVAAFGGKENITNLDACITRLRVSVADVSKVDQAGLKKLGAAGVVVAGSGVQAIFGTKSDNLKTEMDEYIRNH
In words: cross-linking; as a1, but in the ptsHIcrr deletion strain LJ140 (no phosphorylation of EIICB^Glc can occur); cells grown in the absence or presence of glucose.

Assay [2] concerns the target T2, EIICB^Glc-K150E-5His (E. coli K-12) (UniProt P69786).
T2 sequence: T1 sequence with K150E
Described as above.

Assay [3] addresses T1, EIICB^Glc-5His (E. coli K-12). As to the kind of experiment: cross-linking; in vivo, 0.3% paraformaldehyde for 20 min at 37 °C; PTS-positive cells (JKA12; also the dgsA deletion strain LJB17) grown with 0.2% glucose; membrane proteins solubilised with 2% Triton X-100; EIICB^Glc-His purified on Ni-NTA agarose; co-purified SgrT-3HA detected by Western blot. (In western blotting, separated proteins are transferred to a membrane and probed.)

For assay [4], the target named is T3, EIICB^Glc-P384R-His (E. coli K-12) (UniProt P69786).
T3 sequence: T1 sequence with P384R
The description is as above.

Assay [5] addresses T4, EIICB^Glc-D388A-5His (E. coli K-12) (UniProt P69786).
T4 sequence: T1 sequence with D388A
The description is as above.

Assay [6] has as its target T2, EIICB^Glc-K150E-5His (E. coli K-12). As to the kind of experiment: condition: only in the PTS-positive strain JKA12, where the K150E transporter remains phosphorylated; cross-linking; in vivo, 0.3% paraformaldehyde for 20 min at 37 °C; PTS-positive cells (JKA12; also the dgsA deletion strain LJB17) grown with 0.2% glucose; membrane proteins solubilised with 2% Triton X-100; EIICB^Glc-His purified on Ni-NTA agarose; co-purified SgrT-3HA detected by Western blot.

The target in assay [7] is T1, EIICB^Glc-5His (E. coli K-12). As to the kind of experiment: cross-linking; as a1, but JKA12 cells grown in the absence of glucose.

Numbering of substitutions follows the chain as printed. No constants are given. Whether binding was seen depends on the method and setting. In cells and extracts the contact can be indirect. Some binding calls cover weakened binding; strength is not graded here. Sequences can lack the tags named with a protein.

On to MRQFYQHYFTATAKLCWLRWLSVPQRLTMLEGLMQWDDRNSES (peptide, UniProt C1P5Z7 1-43) [SgrT-3HA], for which the binding result is “binds” in assay [1]; “binds” in assay [2]; “binds” in assay [3]; “no binding” in assay [4]; “binds” in assay [5]; “no binding” in assay [6]. In assay [7], the binding result is on record as “binds weakly”.

The values are drawn from publication PMC3901232.
